Results: the supplement of paper PMC4604168 (melanoma cell lines)
The list shows a part of the results. Repeats are few or missing, and single values can be far off.

tested on: WM3619; assay: cell count relative to DMSO control; melanoma cells; higher = more viable cells; settings: library dose: low library concentration; 72 h
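Further: cell number obtained by counting DAPI-stained nuclei in high-throughput microscope images with image analysis software, screen run in 1,536-well plates.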

Row | SMILES | cell count [%]
1 | Nc1ncn([C@H]2C[C@H](O)[C@@H](CO)O2)c(=O)n1 [decitabine] + C[C@]1(c2nc3c(C(N)=O)cccc3[nH]2)CCCN1 [Veliparib] (first compound 0.1 µM, partner dose 1.4 µM) | 84.1
2 | Nc1ncn([C@H]2C[C@H](O)[C@@H](CO)O2)c(=O)n1 [decitabine] + COc1ccc(Cl)c(Nc2nc3ccccc3nc2NS(=O)(=O)c2cccc(NC(=O)C(C)(C)N)c2)c1 [XL147] (first compound 0.1 µM, partner dose 0.8 µM) | 137
3 | CO[C@H]1C[C@@H]2CC[C@@H](C)[C@@](O)(O2)C(=O)C(=O)N2CCCC[C@H]2C(=O)O[C@H]([C@H](C)C[C@@H]2CC[C@@H](OCCO)[C@H](OC)C2)CC(=O)[C@H](C)/C=C(\C)[C@@H](O)[C@@H](OC)C(=O)[C@H](C)C[C@H](C)/C=C/C=C/C=C/1C [everolimus] + N#Cc1c(O)c2c(-c3ccc(-c4ccccc4O)cc3)csc2[nH]c1=O [A769662] (first compound 0.02 µM, partner dose 2 µM) | 72.4
4 | Nc1ccn([C@@H]2O[C@H](CO)[C@@H](O)C2(F)F)c(=O)n1 [gemcitabine] + OCc1c[nH]c2ccccc12 [Indole-3-carbinol] (first compound 0.0004 µM, partner dose 0.8 µM) | 52
5 | CO[C@H]1C[C@@H]2CC[C@@H](C)[C@@](O)(O2)C(=O)C(=O)N2CCCC[C@H]2C(=O)O[C@H]([C@H](C)C[C@@H]2CC[C@@H](OCCO)[C@H](OC)C2)CC(=O)[C@H](C)/C=C(\C)[C@@H](O)[C@@H](OC)C(=O)[C@H](C)C[C@H](C)/C=C/C=C/C=C/1C [everolimus] + Oc1cc(-c2nc(-c3ccccc3)[nH]c2-c2ccncc2)ccc1Cl [L779450] (first compound 0.02 µM, partner dose 0.2 µM) | 55.3
6 | Nc1nc(F)nc2c1ncn2[C@@H]1O[C@H](CO)[C@@H](O)[C@@H]1O [fludarabine] + NC(=O)Nc1cc(-c2cccc(F)c2)sc1C(=O)N[C@H]1CCCNC1 [AZD7762] (first compound 0.2 µM, partner dose 0.02 µM) | 46.7
7 | Nc1nc(F)nc2c1ncn2[C@@H]1O[C@H](CO)[C@@H](O)[C@@H]1O [fludarabine] + COc1cc(Nc2ncc(F)c(Nc3ccc4c(n3)NC(=O)C(C)(C)O4)n2)cc(OC)c1OC [Tamatinib] (first compound 0.2 µM, partner dose 0.4 µM) | 93.7
8 | Nc1ccn([C@@H]2O[C@H](CO)[C@@H](O)C2(F)F)c(=O)n1 [gemcitabine] + O=C(Nc1cccc(Cl)c1)Nc1ncc(CCNc2ncnc3ccsc23)s1 [SNS314] (first compound 0.0004 µM, partner dose 0.0008 µM) | 82.6
9 | CC(=O)O[C@@]12CO[C@@H]1C[C@H](O)[C@@]1(C)C(=O)[C@H](O)C3=C(C)[C@@H](OC(=O)[C@H](O)[C@@H](NC(=O)OC(C)(C)C)c4ccccc4)C[C@@](O)([C@@H](OC(=O)c4ccccc4)[C@H]21)C3(C)C [Docetaxel] + CC(C)C[C@H](NC(=O)[C@H](Cc1ccccc1)NC(=O)c1cnccn1)B(O)O [Bortezomib] (first compound 0.0001 µM, partner dose 0.001 µM) | 70.7
10 | Nc1nc(F)nc2c1ncn2[C@@H]1O[C@H](CO)[C@@H](O)[C@@H]1O [fludarabine] + Cn1c(Nc2ccc(C(F)(F)F)cc2)nc2cc(Oc3ccnc(-c4ncc(C(F)(F)F)[nH]4)c3)ccc21 [CHIR265] (first compound 0.2 µM, partner dose 0.08 µM) | 67.5
11 | CC(=O)O[C@@]12CO[C@@H]1C[C@H](O)[C@@]1(C)C(=O)[C@H](O)C3=C(C)[C@@H](OC(=O)[C@H](O)[C@@H](NC(=O)OC(C)(C)C)c4ccccc4)C[C@@](O)([C@@H](OC(=O)c4ccccc4)[C@H]21)C3(C)C [Docetaxel] + Nc1ccn([C@@H]2O[C@H](CO)[C@@H](O)C2(F)F)c(=O)n1 [gemcitabine] (first compound 0.0001 µM, partner dose 0.0004 µM) | 70.7
12 | Nc1ncn([C@H]2C[C@H](O)[C@@H](CO)O2)c(=O)n1 [decitabine] + O=C(O)C(=O)Nc1sc2c(c1C(=O)O)CCNC2 [TCS401] (first compound 0.1 µM, partner dose 1.66667 µM) | 95.2
13 | CO[C@H]1C[C@@H]2CC[C@@H](C)[C@@](O)(O2)C(=O)C(=O)N2CCCC[C@H]2C(=O)O[C@H]([C@H](C)C[C@@H]2CC[C@@H](OCCO)[C@H](OC)C2)CC(=O)[C@H](C)/C=C(\C)[C@@H](O)[C@@H](OC)C(=O)[C@H](C)C[C@H](C)/C=C/C=C/C=C/1C [everolimus] + CC(=O)c1c(C)c2cnc(Nc3ccc(N4CCNCC4)cn3)nc2n(C2CCCC2)c1=O [palbociclib] (first compound 0.02 µM, partner dose 0.04 µM) | 58.6
14 | CC(=O)O[C@@]12CO[C@@H]1C[C@H](O)[C@@]1(C)C(=O)[C@H](O)C3=C(C)[C@@H](OC(=O)[C@H](O)[C@@H](NC(=O)OC(C)(C)C)c4ccccc4)C[C@@](O)([C@@H](OC(=O)c4ccccc4)[C@H]21)C3(C)C [Docetaxel] + Oc1nc(-c2ccc(C(F)(F)F)cc2)nc2c1CSCC2 [XAV939] (first compound 0.0001 µM, partner dose 2 µM) | 81.9
15 | Nc1ncn([C@H]2C[C@H](O)[C@@H](CO)O2)c(=O)n1 [decitabine] + CO[C@@H]1[C@H](N(C)C(=O)c2ccccc2)C[C@H]2O[C@]1(C)n1c3ccccc3c3c4c(c5c6ccccc6n2c5c31)C(=O)NC4 [Midostaurin] (first compound 0.1 µM, partner dose 0.08 µM) | 84.6
16 | CO[C@H]1C[C@@H]2CC[C@@H](C)[C@@](O)(O2)C(=O)C(=O)N2CCCC[C@H]2C(=O)O[C@H]([C@H](C)C[C@@H]2CC[C@@H](OCCO)[C@H](OC)C2)CC(=O)[C@H](C)/C=C(\C)[C@@H](O)[C@@H](OC)C(=O)[C@H](C)C[C@H](C)/C=C/C=C/C=C/1C [everolimus] + COc1ccc(Cl)c(Nc2nc3ccccc3nc2NS(=O)(=O)c2cccc(NC(=O)C(C)(C)N)c2)c1 [XL147] (first compound 0.02 µM, partner dose 0.8 µM) | 83.7
17 | Nc1ncn([C@H]2C[C@H](O)[C@@H](CO)O2)c(=O)n1 [decitabine] + Cc1ccc(NC(=O)c2cccc(N(C)C)c2)cc1NC(=O)c1ccc(O)cc1 [ZM336372] (first compound 0.1 µM, partner dose 2 µM) | 86.9
18 | CC(=O)c1c(C)c2cnc(Nc3ccc(N4CCNCC4)cn3)nc2n(C2CCCC2)c1=O [palbociclib] + O=C(CCCCCCC(=O)Nc1ccccc1)NO [vorinostat] (first compound 0.04 µM, partner dose 0.08 µM) | 84.5
19 | CC(=O)c1c(C)c2cnc(Nc3ccc(N4CCNCC4)cn3)nc2n(C2CCCC2)c1=O [palbociclib] + O=C(O)c1ccc(-c2c[nH]c3ncc(-c4ccccc4)cc23)cc1C1CCCC1 [GSK650394] (first compound 0.04 µM, partner dose 0.16 µM) | 86.9
20 | Nc1ncn([C@H]2C[C@H](O)[C@@H](CO)O2)c(=O)n1 [decitabine] + CN(C)S(=O)(=O)c1ccc2c(c1)/C(=C/c1cc3c([nH]1)CCCC3)C(=O)N2 [SU6656] (first compound 0.1 µM, partner dose 0.4 µM) | 82.2
21 | Nc1nc(F)nc2c1ncn2[C@@H]1O[C@H](CO)[C@@H](O)[C@@H]1O [fludarabine] + N#Cc1c(O)c2c(-c3ccc(-c4ccccc4O)cc3)csc2[nH]c1=O [A769662] (first compound 0.2 µM, partner dose 2 µM) | 98.7
22 | CC(=O)c1c(C)c2cnc(Nc3ccc(N4CCNCC4)cn3)nc2n(C2CCCC2)c1=O [palbociclib] + COc1ccc2c(c1)CCC1C2CCC2(C)C(NCCCCCCN3C(=O)C=CC3=O)CCC12 [U73122] (first compound 0.04 µM, partner dose 0.4 µM) | 100
23 | Nc1ccn([C@@H]2O[C@H](CO)[C@@H](O)C2(F)F)c(=O)n1 [gemcitabine] + C#Cc1cccc(Nc2ncnc3cc(OCCOC)c(OCCOC)cc23)c1 [erlotinib] (first compound 0.0004 µM, partner dose 0.8 µM) | 79
24 | Nc1nc(F)nc2c1ncn2[C@@H]1O[C@H](CO)[C@@H](O)[C@@H]1O [fludarabine] + COc1ccc(COc2ccc(Cc3cnc(N)nc3N)cc2OC)cc1 [GW2580] (first compound 0.2 µM, partner dose 1 µM) | 94.5
